For 22 molecules, binding signal results are on record in PMC12136788.

The labels stand for the following.
T1: UNK ZnF1-3 (human, UniProt Q9C0B0 31-174)
T1 sequence: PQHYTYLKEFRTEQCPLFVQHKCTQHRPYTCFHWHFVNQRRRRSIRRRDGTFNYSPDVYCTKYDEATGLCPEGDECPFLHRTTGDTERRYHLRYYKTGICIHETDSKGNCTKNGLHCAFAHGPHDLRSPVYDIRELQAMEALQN

B1: chr2:29004620:29004621:+_ENSG00000213639_ENST00000296122|hu_mus|motif|central (ssRNA)
RNA: GGGAGUUCUACAGUCCGACGAUCCAAUUUAAUAUUAAAUCUUCGUUUACACUCAUCGUAGAAUCCAUAAAUGCGAUUGAUGCGGGCACACUCAUGGUUUCCUCUUAGAAGAAAGAAGUUCUCCGGGUAUUUGAUUUUGUAAGCCAACAGAGGAUUGAGCAUCA
B2: chr9:44565267:44565268:-_ENSMUSG00000032096_ENSMUST00000034607|mus_hu|FALSE|FALSE (ssRNA)
RNA: GGGAGUUCUACAGUCCGACGAUCAUUAAUGGGUGGAGCAUGCAUUUUGGUUGCUUCAGAAGUACGCUUGCCCAUACUAGAGGACAUGAUGGUUUCACCUUCAGAUUUUAAUUUGUCCACAAAGUUAUCUACUUCCUUUCCUUUCAACAGAGGAUUGAGCAUCA
B3: 243354369_243354489_1050_3pUTR_ENSG00000143702_ENST00000366542|human|control|control (ssRNA)
RNA: GGGAGUUCUACAGUCCGACGAUCUCCUCUUCUGUUCUUUCCCAUAGCAUUUGAGGAGGGUUGUUUUGUGCUAGCCAGUCAGCAACUUUGUUUUCGGGUGCCAUCAUUCCUGUUUGAAUCCCCAGCAAGUCUUGAGUUCCAGGACAACAGAGGAUUGAGCAUCA
B4: chr19:16212804:16212805:+_ENSG00000167460_ENST00000300933|hu_mus|hu_hu_hu_mus_False|1_28 (ssRNA)
RNA: GGGAGUUCUACAGUCCGACGAUCAACAAUUCUGGAGUGAAGGAAAGAUGUAACAUGGAACAGCAUUAAAGCUCAGUCAGAAGGCACAUGGGCAACAAUGAUCACCCCCCAAGCAUUGCUUGGAAUGCUUAAAGACAGAUGUUUCAACAGAGGAUUGAGCAUCA
B5: chr6:31700055:31700056:-_ENSG00000213719_ENST00000375779|hu_mus|motif|central (ssRNA)
RNA: GGGAGUUCUACAGUCCGACGAUCUCCACGGAAUGCCUCUGGGAUGGUGAAGCCUCUGUACUUUUUGCACACCACCUGUACGGUGUGAAGCUUUGGCAGCAGGUUGCAGUCAGCCAGGGUGAGCUCAUUGCCGUCCAGAAACUUCAACAGAGGAUUGAGCAUCA
B6: 15287172_15288884_2317_CDS_ENSG00000131375_ENST00000253693|human|control|control (ssRNA)
RNA: GGGAGUUCUACAGUCCGACGAUCUUGGAAAUUUCCACAUCCUCCAGCACUCUGACCACUCCACUUUCCAUUAAUCCGUUUUGAUAAGGUGUAUGGUGAAGGAAUCUUUGAAAAAGUAAAGCUGCAUGCUGAAUAUACCCGAACCAACAGAGGAUUGAGCAUCA
B7: 3596234_3596354_291_5pUTR_ENSMUSG00000040302_ENSMUST00000042753|mouse|control|control (ssRNA)
RNA: GGGAGUUCUACAGUCCGACGAUCCCGCCCCCUAGAGCUUCGGAGGUGGCCCGAGGGUGACAGCGGCCGGGCGUGGGAAGAGGGGGGCGGGCCUGAUCGAUGUUCUCGGGUUCCGACGCUCUCACCUGACGAGAAGCCGGUGGACAACAGAGGAUUGAGCAUCA
B8: chr3:179287964:179287965:+_ENSG00000136518_ENST00000429709|hu_hu|motif|central (ssRNA)
RNA: GGGAGUUCUACAGUCCGACGAUCUUUUAGAGGUGAAAUGGCCUCCAUAUUCUCCCUCGGAACACGCAGAGCAUUAGUAUCGGUGUAGUAGGUGGGACCGCCUUGUUUGCCUUUAUCGCCAUCUAUUUCCAUUAAUGUGCUUCCCAACAGAGGAUUGAGCAUCA
B9: 110446508_110446628_2264_3pUTR_ENSG00000134987_ENST00000506538|human|control|control (ssRNA)
RNA: GGGAGUUCUACAGUCCGACGAUCUUUGGAGAUGAACUGAGGCUCACAGAAUGGAUUAAAAUUUUGUUUUUAAAGUUCCAGAAUUUGAGUAAUCCUUCACUACCAGUUGUAACUGUCAACUGGUUUAAUCCAUCCACUGCGACACAACAGAGGAUUGAGCAUCA
B10: chr11:9452432:9452433:+_ENSG00000205339_ENST00000379719|hu_mus|FALSE|FALSE (ssRNA)
RNA: GGGAGUUCUACAGUCCGACGAUCAAAUGUCAUUGCCAGAUGUUGUGUCAUUUCUACAGCAAUAGGAGUAACUUCUUCACUAUAUUCACAGAUCAUUUUCUGAAUUACAUUUGUAAGAUCAUCAUUUUCUGUUUCUCUUAUAAUCAACAGAGGAUUGAGCAUCA
B11: chr12:105540249:105540250:+_ENSG00000136051_ENST00000332180|hu_hu|motif|central (ssRNA)
RNA: GGGAGUUCUACAGUCCGACGAUCAUUGUUGAGAUUAUAGAGGUAUCGGGACACAAAUAUAUGAAUGUUUCUCAUAAUUUCGGAAACAUCAAGGCCCUGUUCCAAAGUCUGACUGGGAAGAUGUGCCUCUGUCAUAACCAGUCCCAACAGAGGAUUGAGCAUCA
B12: chr1:109605286:109605287:-_ENSG00000197780_ENST00000461096|hu_mus|hu_hu_hu_mus_True|38_68 (ssRNA)
RNA: GGGAGUUCUACAGUCCGACGAUCAAGUUUCAGAGUAACAUUCAGUAACCUCUUUAAAUGCAAUUAUCCUUACUUUAAGCUAAGCAGAAUAAUAAUUUAAUACAUAGAGUGAACUACACACAAAGCCUGAACCGCGAAAAUGGUCAACAGAGGAUUGAGCAUCA
B13: chr19:8871877:8871878:-_ENSMUSG00000071662_ENSMUST00000096261|mus_mus|FALSE|FALSE (ssRNA)
RNA: GGGAGUUCUACAGUCCGACGAUCGCCUGGCUGGAUCACACCAGCACCAAUAUUGUCGAUGGUGGUGACAGCAAUUACAAAGCCAUAUUUCCCAGUGCAGGUCCCCUCCACCUCGGUAAACAGCUUCUGCUUCACCGUGUUGAGCAACAGAGGAUUGAGCAUCA
B14: chrX:71549400:71549401:+_ENSMUSG00000019087_ENSMUST00000019231|mus_hu|mus_mus_mus_hu_False|48_68 (ssRNA)
RNA: GGGAGUUCUACAGUCCGACGAUCGCAGUAGGAAGAGGGAAGCUCUUCAGUCCAGUGCGCUGCAGGGAGAAACAUGAACAACACGGAACCAAUACUCCCCUCAACCCCCCCACUGGCACAGGGUCACACAAUCUGGGUCAAAGACAACAGAGGAUUGAGCAUCA
B15: chr2:91446484:91446485:+_ENSMUSG00000040549_ENSMUST00000099716|mus_mus|motif|central (ssRNA)
RNA: GGGAGUUCUACAGUCCGACGAUCCAACUUCUCAUCUGCCAUGUGUGUGCUGUAGAUGAGUCUUAGCUGCAUGAAUGUUGCGGUCAGAAACUGAUCAAUGUGGCCAGACAUAGCUUCAGCUUUGUCUUCCUGCCUCAGGACCUCCAACAGAGGAUUGAGCAUCA
B16: chr2:48026839:48026840:+_ENSG00000116062_ENST00000540021|hu_hu|hu_hu_hu_mus_False|8_98 (ssRNA)
RNA: GGGAGUUCUACAGUCCGACGAUCAUAGUGAGCCACUAGAGUCCUAAAUCUGGAACAGUGGCGGUCAUCCGAAAACUGGCCGAUGAAAAACUUGCCCAGUGAAGUGUCCACAAAGCAAACACCAUACGCACGAGUAUGACCAGACAACAGAGGAUUGAGCAUCA
B17: 48360997_48361988_690_CDS_ENSG00000134291_ENST00000256686|human|control|control (ssRNA)
RNA: GGGAGUUCUACAGUCCGACGAUCACAAUCCACAUAGUGAUGUGUCUCCAAGGAGCUCUGGGUCAUGAGGCCAAUGUAUGAAAUCUUCACUGAAGUUCGCAUGAAGAUCACUAUGUUGUGCACCAGGAUCUCAGGUACCGUGCACAACAGAGGAUUGAGCAUCA
B18: chr1:90180492:90180493:+_ENSG00000171488_ENST00000370454|hu_mus|FALSE|FALSE (ssRNA)
RNA: GGGAGUUCUACAGUCCGACGAUCUUUCAUCUGCUCCCGGACAUCUGAGGGCAGAGUCUCAAACAGAGCAUCUUCCACAACUAGCCCGGCUCGCUUCAGAGCCCGGCAGUCUCCCAGCUCGGGAGGGAGGACUUCAAAGUGAUUCAACAGAGGAUUGAGCAUCA
B19: 50683453_50683573_993_CDS_ENSG00000016082_ENST00000230658|human|control|control (ssRNA)
RNA: GGGAGUUCUACAGUCCGACGAUCCAGUGGCCGCGCUGGAUGCAGGGGACUGAGCGGGUCGCCAGCGCCUAGACUGGCCCUCUCCACCACAUCGUGGUCUGCUCGGCAGAAGAGACCGUCCUCCCGAAGCGCAAAUUCGUCCCCCAACAGAGGAUUGAGCAUCA
B20: chr2:65315729:65315730:-_ENSG00000138069_ENST00000409751|hu_hu|FALSE|FALSE (ssRNA)
RNA: GGGAGUUCUACAGUCCGACGAUCAACAUUGGACUUCUCAGCACCACCAGCUGUUGCUCCGGGACCCAUUCGCUUUUUAAUCUCAGCUGCCAUCGUCAUGAAAGACUGUUCUACAUUCGUUGCAUUCUUAGCACUGGUUUCCAACAACAGAGGAUUGAGCAUCA
B21: chr4:17845017:17845018:+_ENSG00000109805_ENST00000514176|hu_mus|hu_hu_hu_mus_False|18_108 (ssRNA)
RNA: GGGAGUUCUACAGUCCGACGAUCGCUUCCUAACUUAGUAUCUUCAUUAAGGAACUCUGCAAGGUUAAGUUUACUUUUCUGUAGCGCAGCUGUUUUGGCUCGUCUGGGUAAUCUCAUUUCAUUUCUGGAUGGUGGUUCAUGAUCCAACAGAGGAUUGAGCAUCA
B22: chr6:67234166:67234167:+_ENSMUSG00000036371_ENSMUST00000042990|mus_mus|motif|central (ssRNA)
RNA: GGGAGUUCUACAGUCCGACGAUCUGAAGAAUGCAUAUUCUCUGAAAAUUAUGAAAACAUCCCUGCUACCAAUACAUUUCGGAAUACAAAACUGACUAACAUAUUUUGUUACUUCUGUGUAGCUAGAGAAGUUCGUUUUCAAAACAACAGAGGAUUGAGCAUCA

The other results are listed elsewhere or left out.

The target in this assay is T1, UNK ZnF1-3. As to the kind of experiment: nsRBNS (natural sequence RNA bind-n-seq); RBNS binding buffer (assumed for nsRBNS): 25 mM Tris pH 7.5, 150 mM KCl, 3 mM MgCl2, 0.01% Triton X-100, 500 ug/ml BSA, 20 U/ml SUPERase-In, 4 C; UNK is unkempt and MSI1 is Musashi-1; names of the RNAs are library labels; protein concentration not given here; high values mean tight binding.
Molecule B1 returned a binding signal of 1.1 enrichment R.
B2 had a binding signal of 0.607 enrichment R.
Molecule B3 gave a binding signal of 0.667 enrichment R.
B4 gave a binding signal of 1.34 enrichment R.
As for B5, the binding signal is 0.768 enrichment R.
With B6, the binding signal worked out at 1.34 enrichment R.
In turn, B7 registered a binding signal of 0.423 enrichment R.
B8 gave a binding signal of 0.677 enrichment R.
B9 displayed a binding signal of 0.866 enrichment R.
As for B10, the binding signal is 0.605 enrichment R.
Molecule B11 displayed a binding signal of 1.5 enrichment R.
The molecule B12 had a binding signal of 0.711 enrichment R.
B13 returned a binding signal of 0.804 enrichment R.
Molecule B14 displayed a binding signal of 1.95 enrichment R.
Consider B15, for which the binding signal was 0.531 enrichment R.
Molecule B16 registered a binding signal of 1.07 enrichment R.
Consider B17, for which the binding signal was determined as 0.76 enrichment R.
Consider B18, for which the binding signal was determined as 0.929 enrichment R.
For B19 the value was 1.35 enrichment R.
As to B20, the binding signal stood at 1.05 enrichment R.
Next, B21: 0.601 enrichment R.
Regarding B22, the binding signal amounted to 0.496 enrichment R.
